Test results as given in PubChem BioAssay AID1159614 (National Center for Advancing Translational Sciences (NCATS), 2016).
In all, about 45,000 compounds went through this assay and about 65 (0.1%) were called active. Calls follow the shape of the dose curve; as a rule, active = well fitted activation curve with a large enough effect; inconclusive = small, poorly fitted or top-dose-only effect; inactive = no such curve, though single readings can be large or run the other way. The list shows a part of the results.

These molecules were tested against Galactocerebrosidase (Homo sapiens) (UniProt P54803) (assay: A Novel Cell-Based Assay to Identify Small Molecules for B -Galactocerebrosidase). Details: 145M-Twi-hGALC-G270D cells (Twitcher mouse brain line with human GALC G270D), HMU-beta-Gal fluorescence, 48 h; series mostly up to 57.5 µM; activation: at the top concentration.
In short: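 Fluorogenic HMU-b-Gal hydrolysis (0.1 mM final, pH 5.2 citrate-phosphate with 1 mg/mL sodium taurocholate; carbonate stop buffer) measures mutant GALC activity after compound treatment of live 145M-Twi Twitcher brain cells stably carrying human GALC-G270D, with wild-type GALC line alongside; activation sought.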
Also: 0% is about no effect; nearly all actives have a fitted effect of over 65% in size.

Chain of UniProt P54803 (P54803 whole entry, looked up): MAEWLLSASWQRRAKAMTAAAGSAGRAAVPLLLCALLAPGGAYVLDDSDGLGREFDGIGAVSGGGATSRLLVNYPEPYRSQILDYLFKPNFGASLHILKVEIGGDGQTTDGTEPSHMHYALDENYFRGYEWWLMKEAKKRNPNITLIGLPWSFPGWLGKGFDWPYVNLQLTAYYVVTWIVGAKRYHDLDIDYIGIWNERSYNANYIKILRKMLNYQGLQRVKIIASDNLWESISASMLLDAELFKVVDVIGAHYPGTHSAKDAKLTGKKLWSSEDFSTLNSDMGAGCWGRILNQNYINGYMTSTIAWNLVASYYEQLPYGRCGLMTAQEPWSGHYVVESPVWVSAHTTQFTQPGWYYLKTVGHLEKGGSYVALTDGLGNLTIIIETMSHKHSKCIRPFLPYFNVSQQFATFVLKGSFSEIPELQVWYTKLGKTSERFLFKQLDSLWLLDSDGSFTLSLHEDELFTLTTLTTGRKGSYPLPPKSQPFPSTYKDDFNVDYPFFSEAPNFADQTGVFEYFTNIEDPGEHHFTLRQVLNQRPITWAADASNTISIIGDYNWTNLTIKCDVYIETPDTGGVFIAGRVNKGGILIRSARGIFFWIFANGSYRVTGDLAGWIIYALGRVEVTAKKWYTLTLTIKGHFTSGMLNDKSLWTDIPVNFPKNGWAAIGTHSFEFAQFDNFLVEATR

activation, inactive:
Cc1ccc(C(CC(=O)Nc2cc(C)cc(C)c2)N2Cc3ccccc3C2=O)cc1 (stereo unspecified) -29.9%
Cc1cccc(NC(=O)CSc2nnc(C)c(=O)[nH]2)c1 2.52%
Cc1ccc(-n2ncc3c(NCCCc4ccccc4)ncnc32)cc1C -7.1%
CC(C)c1ccc(NC(=O)c2ccc(NC(=O)CCS(=O)(=O)c3cccs3)cc2)cc1 -10.6%
Cc1ccc(CCNc2nc3c(S(=O)(=O)c4ccc(C)cc4)nnn3c3ccsc23)cc1 -2.71%
CCS(=O)(=O)N1CC(=O)N(c2cccc(C)c2C)C(C)(C(=O)NC2CCCCC2)C1 (stereo unspecified) -10.8%
CCOC(=O)c1[nH]c(C)c(CCC(=O)Nc2ccc(N(CC)CC)cc2C)c1C -9.05%
Cc1ccc(-c2c3c(=O)n(C)c(=O)n(C)c3c3c(C(F)(F)F)nc4ccccc4n23)cc1 -21.6%
Cc1c(NC(=O)c2sc3c([N+](=O)[O-])cccc3c2Cl)cccc1-c1nc2ccccc2o1 -20.4%
COc1cc(CNC(=O)c2cc3n(n2)CCCN(Cc2ccc(C)cc2)C3=O)cc(OC)c1OC -30%
[O-][n+]1cccc(CO)c1 -10%
COc1cc(OC)cc(C(=O)Nc2c(C(=O)Nc3ccc(F)cc3)oc3ccccc23)c1 -8.07%
COc1cc(NC(=O)Cn2c(C)cc3ccccc3c2=O)cc(OC)c1OC -5.92%
CCOC(=O)c1cc(-c2ccccc2)n(CCCC(=O)Nc2cccc(Cl)c2C)c1C -1.66%
CSc1ccc(CCNC(=O)C(C)n2c(C)c3cnn(-c4ccccc4)c(=O)c3c2C)cc1 (stereo unspecified) -15.5%
Cc1nc(-c2ccc(F)cc2)sc1CCNC(=O)c1ccco1 0.4%
Cc1cc(C)cc(NC(=O)Cn2nnc(C(=O)Nc3cc(C)cc(C)c3)c2N)c1 -13.1%
CCc1ccc(CNC(=O)CCN2C(=O)COc3ccccc32)cc1 -22.1%
Cc1ccc(/C=C/c2onc(C)c2S(=O)(=O)N2CCC(C(=O)N3CCOc4ccccc43)CC2)cc1 -15.9%
O=C(Cn1c(=O)n(Cc2ccccc2)c(=O)c2oc3ccccc3c21)Nc1ccc(Cl)cc1 -7.77%
CC(=O)Nc1cc(C(=O)NCc2ccc(F)cc2Cl)ccc1Sc1ccc(Cl)cc1 -2.91%
COC(=O)c1cc2oc(C)cc2n1CC(=O)Nc1ccc(C)cc1C -5.34%
COc1ccccc1N(Cc1cc2cccc(C)c2[nH]c1=O)C(=O)c1cccc(Cl)c1 -11.7%
Oc1ccc(Cl)cc1Nc1nc2ccccc2n2cnnc12 -11.2%
CCOC(=O)c1ccc(NC(=O)Cc2ccc(-n3c(CC)nc4cccnc43)cc2)cc1 -7.92%
COc1ccc(CNC(=O)CCCc2cn(C)c3ccccc23)c(OC)c1 -3.36%
NC(=O)c1cc(S(=O)(=O)N2CCCCC2)cs1 -4.96%
COc1ccc(NC(=O)Cn2nnc(C(=O)NCc3ccccc3Cl)c2N)cc1Cl 4.75%
CCNC(=O)CC1C(=O)N(c2ccc(C)cc2)C(=O)N1Cc1ccc(C)cc1 (stereo unspecified) -9.09%
O=C(CCS(=O)(=O)c1ccc2c(c1)NC(=O)CO2)Nc1cccc(C(F)(F)F)c1 -4.39%
COc1ccc(CCn2c3c(c(=O)[nH]c2=O)C(NC(=O)c2ccccc2)(C(F)(F)F)C(=O)N3)cc1OC (stereo unspecified) -9.4%
CCOc1ccc(N(C(=O)c2ccc(C)cc2)S(=O)(=O)c2ccc3c(c2)n(C)c(=O)n3C)cc1 14%
Cc1ccc2nc(-c3ccc(C)c(NC(=O)CSc4ccc(Cl)cc4)c3)oc2c1 -6.33%
CCn1cc(S(=O)(=O)c2cc(C)cc(C)c2)c(=O)c2cc(F)c(N3CCC(C)CC3)cc21 -24.2%
CCN(CC)C(=O)Cn1c(=O)n(CCCCCC(=O)NCc2ccccc2Cl)c(=O)c2sccc21 2.19%
COc1ccc(OC)c(NC(=O)c2ccc3c(c2)c(C)c(C)n3Cc2ccc(F)cc2)c1 -12.7%
O=C(NCc1cccc(Br)c1)c1cccn1-c1nnc(N2CCCCC2)s1 1.23%
Cc1ccc2cccc(NC(=O)c3ccc(-c4cc(Cl)ccc4Cl)o3)c2n1 -9.96%
Cc1ccc(Cl)cc1N1CCN(C(=O)Cn2cnc3nc4c(cc3c2=O)CCCC4)CC1 -27.9%
O=C(NCc1ccc(Cl)cc1)c1cc2ccccc2o1 -5.21%
Cc1ccc(C)n1-c1nnc(N2CCCC(C(=O)NCc3ccc(F)cc3)C2)s1 (stereo unspecified) -4.89%
Cc1cccc(-c2nc(SCC(=O)Nc3ccc4c(c3)OCO4)c(-c3ccccc3)[nH]2)c1 -14.3%
CCc1ccc(OCC(=O)N(Cc2ccc(OC)cc2)C2CCS(=O)(=O)C2)cc1 (stereo unspecified) -7.98%
O=C(CCn1c(=O)c2cccn2c2cccnc21)N1CCN(c2cccc(Cl)c2)CC1 4.13%
CN1C(=O)Cc2cc(S(=O)(=O)NCCc3ccccc3)ccc21 -14.6%
COc1ccc(NC(=O)C2CCCN2S(=O)(=O)c2ccc3nc(-c4ccccc4)[nH]c3c2)cc1 (stereo unspecified) -10.2%
CCCCCN1C(C(=O)c2ccccc2)=C(NC(=O)c2ccccc2Cl)c2ccccc2S1(=O)=O -19%
COc1ccc(CCNC(=O)c2ccc3c(c2)N(Cc2ccc(Cl)cc2)CCS3)c(OC)c1 2.89%
CCN1CCN(C(=O)c2ccc3c(c2)N(Cc2cccc(F)c2)C(=O)c2ccccc2S3)CC1 -22%
COCCCNC(=O)Cn1cnc2sc(C)c(S(=O)(=O)N3CCN(c4ccccc4OC)CC3)c2c1=O -27.4%
CCOC(=O)c1cc(-c2ccc(C)cc2)n(CCC(=O)Nc2ccc(OC)c(OC)c2)c1C -11.7%
COc1ccc(-c2nc3n(n2)C(=O)CC(c2ccc(Cl)cc2)S3)cc1 (stereo unspecified) -9.72%
Cc1ccc(-c2ccc(=O)n(CC(=O)NCc3ccc(F)cc3)n2)cc1 -16.8%
CCC(C)NC(=O)C1CCC(CNS(=O)(=O)c2ccc(Cl)cc2)CC1 (stereo unspecified) -11.5%
CCOC(=O)C1CCN(S(=O)(=O)c2ccc3c(c2)NC(=O)C(C)C(=O)N3)CC1 (stereo unspecified) -17.6%
Cc1ccc2nc3c(cc(C(=O)NC4CCCCC4)c(=N)n3C(C)C)c(=O)n2c1 -19.7%
CCOC(=O)c1ccc(NC(=O)CC2NCCNC2=O)cc1 (stereo unspecified) -10.1%
CCn1c2ccccc2c2cc(NC(=O)COc3ccc(C)c(C)c3)ccc21 -2.76%
COC(=O)c1c(NC(=O)COc2cc(C)ccc2C(C)C)sc2c1CCC(C)C2 (stereo unspecified) -6%
Cc1cc(C)c(S(=O)(=O)n2cnc(C)c2)c(C)c1 -6.91%
CC(=O)c1ccc(N2CCN(S(=O)(=O)c3ccc(-c4cc(C)no4)s3)CC2)cc1 -1.43%
COC(=O)c1ccc(NC(=O)C2CCN(C(=O)c3ccc(F)cc3)CC2)cc1 -6.79%
CC1=C(C(=O)Nc2ccccc2C)C(c2cccnc2)n2nc(SCc3ccccc3F)nc2N1 (stereo unspecified) -11.2%
CCOc1cc(C(=O)Nc2ccc(-c3nc4ncccc4o3)cc2C)cc(OCC)c1OCC -7.96%
Cc1cccc(NC(=O)CCn2nc(-c3ccccc3)c3ccccc3c2=O)c1 -33.4%
CCS(=O)(=O)CCSc1nc(-c2ccc(Br)cc2)cc(-c2ccccc2)c1C#N -18%
N#Cc1cccc(NC(=O)C2CCN(c3ncccn3)CC2)c1 -1.82%
COc1ccccc1CNC(=O)CCCCn1c(=O)c2ccccc2n(CC(=O)Nc2cc(Cl)ccc2C)c1=O -14.6%
O=C(O)CCc1ccc(-c2ccccc2)n1CC(=O)Nc1ccccc1C(F)(F)F -15.8%
Cc1ccccc1Nc1nn2c(=O)c3ccc(C(=O)N4CCCC(C)C4)cc3nc2s1 (stereo unspecified) -14.5%
COc1ccc2c(c1)c1c(c(=O)n(-c3ccccc3C)c(=O)n1CC(=O)Nc1c(C)cccc1C)n2C -9.6%
O=c1c2[nH]c3ccccc3c2nc(SCc2cccc(F)c2)n1-c1ccccc1 -15.5%
CCOc1ccc(CNS(=O)(=O)c2cc(-c3cc(C)no3)ccc2C)cc1OC -8.1%
O=C1CC(c2ccc(Cl)cc2)Sc2nc(-c3ccc(F)cc3)nn21 (stereo unspecified) -25%
COc1ccc(-c2cnc(C)o2)cc1S(=O)(=O)Nc1ccc(C)c(N(C)C)c1 -19.1%
CC(C)(C)c1ccc(C(=O)CCCN2CCC(OC(c3ccccc3)c3ccccc3)CC2)cc1 -17.7%
COc1ccc(NC(=O)Cn2c(SCc3ccc(C)cc3)nc3cccnc32)c(OC)c1 0.514%
Cc1ccc(NC(=O)CCC(=O)N2Cc3ccccc3Oc3ncccc32)cc1 -6.82%
COc1cccc(OC)c1C(=O)Nc1ccc2c(c1)N(C(C)=O)CCC2 -6.7%
O=C(CCc1ccccc1)NC1CC(=O)N(c2ccccc2)C1 (stereo unspecified) -7.01%
CCCn1c(=O)c2sccc2n2c(CCCC(=O)Nc3cccc(CC)c3)nnc12 -6.85%
CCc1cnc2c(c1SCC(=O)Nc1ccc(C)cc1C)c(=O)n(C)c(=O)n2C -6.82%
COCCCNC(=O)CSc1nc(-c2ccccc2)[nH]c1-c1ccc(C)cc1 -17.3%
Cn1c(=O)[nH]c2cc(-c3noc(-c4ccc(F)cc4)n3)ccc21 -11.7%
CCn1c(=O)cc(SCC(=O)NCCc2ccc(OC)cc2OC)c2ccccc21 -35.1%
CCc1ccc(-n2c(=O)c3c4c(sc3n(CC(=O)NC(C)CC)c2=O)CCCC4)cc1 (stereo unspecified) -7.56%
CCc1nn2c(=O)cc(COC(=O)C(c3ccccc3)c3ccccc3)nc2s1 -12.3%
Cc1cccc(-c2nc(SCC(=O)Nc3ccc4c(c3)OCCO4)c(-c3ccccc3)[nH]2)c1 -15.6%
Cc1cc(C)cc(N(CC(=O)NCc2ccccc2Cl)S(=O)(=O)c2c(C)noc2C)c1 -14.9%
COc1ccc(-n2nc(C(=O)NCCc3cccc(C)c3)c3c4ccccc4n(C)c3c2=O)cc1Cl -16%
CCOC(=O)c1ccc(Nc2cc(-c3ccccc3)nc(C)n2)cc1 -5.08%
Cc1ccccc1C(=O)Nc1nnc(S(=O)(=O)N2CCCCCC2)s1 -15.1%
COC(=O)CC1Oc2ccccc2-n2cc(-c3ccc(Cl)cc3)nc21 (stereo unspecified) -7.37%
Cc1ccc(Cl)cc1N1CCN(C(=O)C2CCN(Cc3nc(-c4cccc(Cl)c4)oc3C)CC2)CC1 11.3%
COc1ccc(CNC(=O)Cc2csc3nc(-c4ccc(C)cc4)cn23)cc1 -10.2%
O=C(COc1ccccc1)Nc1ccccc1C(=O)OCc1cc(=O)n2nc(C3CC3)sc2n1 -9.87%
